The source gives no read counts; variants with many changes may rest on few reads.
B1: CPEB3 Ribozyme (parent)
chain: UAACAGGGGGCCACAGCAGAAGCGUUCACGUCGCAGCCCCUGUCAGAUUCUGGUGAAUCUGCGAAUUCUGCUGUAUAUCUC

Variants of: B1
Test: self-cleavage, relative activity (ratio to wild type); higher = more cleavage; in vitro, sequencing
Method in brief: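 Relative activity compares each variant's cleaved/total read fraction with that of the unmutated ribozyme. To get these fractions, barcoded CPEB3 ribozyme libraries from rounds of error-prone PCR were transcribed with T7 RNA polymerase for 5 hours at 37°C and then given 15 min of DNase I treatment before EDTA was added. The RNAs were reverse transcribed with template switching and sequenced on Illumina, and DNA sequencing linked barcodes to variants. A minimum of 5 reads applied, and three batches were averaged.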

| Variant | self-cleavage |
| --- | --- |
| C32U U43C U72C | 0.12 |
| C32U G46A U51C | 0.16 |
| C32G G73A U78A | 0.07 |
| G33A G36U C40U U41C C44G U78C | 0.05 |
| G33U A56G U72A | 0.14 |
| G33A C40U U69C | 0.19 |
| G33U U49C U69A | 0.11 |
| G33A A35U A64G | 0.23 |
| G33A A56G U67C | 0.07 |
| G33A U43A U67C | 0.16 |
| C32A U54A U80A | 0.24 |
| C32G U48C C81U | 0.17 |
| C32G C37G A57U U66A | 0.06 |
| C34U U49C U58C U60A U72C | 0.1 |
| C34U G63U U78G | 0.75 |
| C32U U48C C68G U69C U76C | 0.12 |
| C32U U51C A77G | 0.19 |
| G33C U54A U76C | 0.11 |
| C32U A35U U41A A45U A65G U67C | 0.07 |
| C32G U41G U69A U80A | 0.15 |
| C32U A47U U78A | 0.18 |
| C32U C34U U69A | 0.36 |
| G33A C38U U49A A56U | 0.09 |
| G33C U43C U54C | 0.14 |

| Variant | self-cleavage |
| --- | --- |
| C32U G36C A45U U66C | 0.11 |
| C32A U49C U54A U72C | 0.12 |
| C34U A45U A57G | 0.16 |
| G33C U41G C79U | 0.15 |
| G33C C39A U48C A57G U74C | 0.09 |
| G33A U51G C62G | 0.3 |
| C32U U41A U48C U58C C79U | 0.07 |
| C32U A35G U72G | 0.09 |
| G33C A45G U78A | 0.11 |
| G33A A35G U41A A77U | 0.36 |
| G33C C38U A56U A64G | 0.11 |
| C32A U51A U72A | 0.11 |
| C32U C40U U67G | 0.13 |
| C32U C38A A65U | 0.11 |
| G33A A47G U48C U66C | 0.12 |
| G33A U41C A57G | 0.26 |
| C32U A35G A45U A56G | 0.13 |
| C32A U43A A57G U60C A65G U66C U69C | 0.1 |
| C32U A56G U60A | 0.31 |
| C32A U43C U54C | 0.15 |
| C32U A45G C68U | 0.23 |
| G33A A35G G42A A47G U48C U51C | 0.05 |
| G33A U41A U43C U67C | 0.08 |
| G33A U54A U60C | 0.13 |

| Variant | self-cleavage |
| --- | --- |
| C34U U41C A75G | 0.42 |
| G33A U41G C50U U51C U67A U72C | 0.06 |
| C32U U72C U74C | 0.27 |
| C32A U69A C81A | 0.06 |
| G33C G53U U54C | 0.16 |
| C32G U41C A57U A65C | 0.08 |
| G33A A35G U51C | 0.5 |
| G33C U51G G63A U76C | 0.11 |
| G33U U43A A47G A56U | 0.11 |
| G33A U74A A75G | 0.17 |
| C34A C38U U66A | 0.32 |
| C34A A35G C39A | 0.42 |
| G33C A57U U67C U74C U78C | 0.1 |
| C34U C39G U60C | 0.06 |
| C32U U48C C62A A64G | 0.08 |
| G33A U54A U58C A77G | 0.13 |
| G33A U41C U49C | 0.1 |
| G33U A35G U60C U67C U80C | 0.09 |
| G33A C59U U69C | 0.07 |
| G33C U51A U78C | 0.11 |
| G33A A47G C71G | 0.19 |
| C34G A57U C59U G63A | 0.07 |
| G33A G46U U69G U80C | 0.07 |
| C34A A35U U58A A64G | 0.16 |

| Variant | self-cleavage |
| --- | --- |
| G33C U49C U51C G53A U72C | 0.09 |
| C32G U41A A47U A56G A57G U67A | 0.05 |
| C34U U67C A75U | 0.1 |
| C34U U43C A65G U72C | 0.09 |
| C32U C37A U43A U72A | 0.07 |
| C32G U51C A56G U80A | 0.08 |
| G33A A47G U51C A65G | 0.08 |
| C32A U48C U58G | 0.17 |
| C34U U41A U58A U60A A77C | 0.08 |
| G33U A35U U41C | 0.21 |
| C32A U54A U69A | 0.17 |
| G33C A45G U48C U49C | 0.08 |
| C34A A35U U80C | 0.33 |
| C34U C40G A45U U49A | 0.09 |
| G33A A47G G52A U60A G63U | 0.13 |
| G33C A35G U54A U60C U66C | 0.13 |
| C34U U67C C71A | 0.06 |
| G33C U43C C62U U69A | 0.18 |
| G33A U60A A77U | 0.16 |
| C34U U60C U69C U76C | 0.09 |
| G33U G53C U54G | 0.22 |
| G33C U60G U69C | 0.09 |
| C34U U43A A56U | 0.22 |
| C34U U41C U51C U69A | 0.08 |

| Variant | self-cleavage |
| --- | --- |
| G33A U41A G61U A65U U74C | 0.12 |
| G33U U41A U51A U80A | 0.17 |
| C32U U49C U60C U74A A77G | 0.2 |
| C32U A35G C39A A64G U69C U72C U78C | 0.04 |
| G33A U43G A45G G46C | 0.3 |
| G33U U41C U49A U69C G70C | 0.06 |
| C32U U51G A56G | 0.2 |
| G33A U48C U54C U69A | 0.1 |
| G33C A45G U51A U60C | 0.1 |
| G33U C68A U69A | 0.07 |
| C32U A45G U66C | 0.3 |
| C32U U60C U69C U72A G73C U74A | 0.04 |
| C34U U41G U49C | 0.17 |
| G33A C38A U51C A64G U80A | 0.1 |
| C34U U49C U69C | 0.05 |
| C34U U48C U78C | 0.07 |
| G33A A45G U48A A64G | 0.15 |
| C32U C34U U74G | 0.24 |
| C32A U41C G63A | 0.3 |
| C32U U54A U58C | 0.19 |
| C32U U41C C62G U72C | 0.19 |
| C34A U41C A45U U58A C62U | 0.03 |
| C32G U54C U76C U80C | 0.11 |
| G33A A57G A75U U78C | 0.42 |

| Variant | self-cleavage |
| --- | --- |
| C34A A56G U78A U80C | 0.25 |
| G33A C40U U43C A45G U60A | 0.19 |
| C34A U43C U48C A56U | 0.17 |
| G33A A47U U54C A57G U72C | 0.08 |
| C34A U66C U76C | 0.22 |
| C32A U69C U74C | 0.1 |
| G33A A47G A57U | 0.07 |
| G33A G55U A56U | 0.1 |
| C34G A35G A47G | 0.38 |
| C34U U66C U69C | 0.47 |
| G33A U58A U60C | 0.17 |
| G33A G36U U78C | 0.37 |
| C32A U58C A64G | 0.09 |
| C32U U41A U69A U74A U78C | 0.06 |
| G33A U54A G63A A64G | 0.11 |
| G33U U66G A75G | 0.04 |
| C34U A47G A57G | 0.16 |
| C34U A47G A57U | 0.15 |
| G33A U49C U54C U60C U69A | 0.15 |
| C34G U41C A56G | 0.23 |
| C32A U49C U74C U80C | 0.06 |
| G33A A47G U74C | 0.42 |
| G33A U54C U69A | 0.34 |
| G33U U54A U60C | 0.08 |

| Variant | self-cleavage |
| --- | --- |
| C32U U54C U58C | 0.34 |
| G33C U54C A56C U69A | 0.12 |
| C34G A47G A77C | 0.11 |
| C32A U41C C62A | 0.09 |
| C32G U54C G63A | 0.15 |
| C32U A65G U72A | 0.06 |
| G33A A35C U43A A56U U72C | 0.08 |
| C34G A35G U72G U80C | 0.64 |
| G33A G36A C44A | 0.19 |
| G33U A65G U72C | 0.08 |
| G33A G42U U49C C59U | 0.09 |
| G33A U43C U49C U67C U69A | 0.14 |
| C32G G52A A56G | 0.1 |
| C32G G36A A45G A47U U51A U69A | 0.12 |
| C34G U49C U51C | 0.16 |
| C32U A56G A57U A64G | 0.12 |
| G33C G53U A64G | 0.18 |
| G33U U41C A45U | 0.06 |
| C32G U41A U60A U67A C81U | 0.16 |
| G33A U43A U51A U66C | 0.12 |
| C34G U48C U54A G73A | 0.26 |
| C32U A56U U72A | 0.14 |
| C34G C40A A45U C59A | 0.14 |
